Measured values published in PMC13534789, “Molecular Glue Degraders Enhance CAPRIN1‐Dependent Lysosomal Degradation of APP and Reduce Amyloid β in Alzheimer's Disease” (Advanced Science, 2026).

Molecular target: T1, 10xHis-CAPRIN1 (recombinant human CAPRIN1, full length) (human, UniProt Q14444 1-709)
T1 construct: The host is told in the SPR methods only; the tag is named on the protein in the glycerol gradient; also called rhCAPRIN1; His-tagged CAPRIN1
T1 sequence (looked up): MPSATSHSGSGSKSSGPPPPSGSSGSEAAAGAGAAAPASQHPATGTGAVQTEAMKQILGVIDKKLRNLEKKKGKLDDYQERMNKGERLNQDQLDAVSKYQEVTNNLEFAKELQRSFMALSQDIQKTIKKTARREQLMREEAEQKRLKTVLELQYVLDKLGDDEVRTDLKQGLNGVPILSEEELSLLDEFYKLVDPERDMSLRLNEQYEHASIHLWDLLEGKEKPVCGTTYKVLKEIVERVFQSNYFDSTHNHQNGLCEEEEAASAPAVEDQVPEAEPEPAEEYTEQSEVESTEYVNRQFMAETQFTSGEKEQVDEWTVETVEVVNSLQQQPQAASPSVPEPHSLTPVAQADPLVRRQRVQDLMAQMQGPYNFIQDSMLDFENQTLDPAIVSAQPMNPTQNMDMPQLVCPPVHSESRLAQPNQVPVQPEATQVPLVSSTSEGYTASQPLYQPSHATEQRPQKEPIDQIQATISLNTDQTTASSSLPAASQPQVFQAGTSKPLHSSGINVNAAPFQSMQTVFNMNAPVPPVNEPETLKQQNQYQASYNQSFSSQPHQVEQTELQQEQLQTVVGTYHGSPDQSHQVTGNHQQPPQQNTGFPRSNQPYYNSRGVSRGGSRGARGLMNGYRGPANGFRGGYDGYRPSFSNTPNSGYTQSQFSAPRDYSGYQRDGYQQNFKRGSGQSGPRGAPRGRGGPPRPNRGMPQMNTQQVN
Experiment: SPR; as a11, APP695 applied after incubation with compound 0152 (text: equimolar; legend: 0.1 µM)
Details: both partners purified

B1: 10xHis-MBP-APP695 (full-length) (natural protein, human)
chain: LEVPTDGNAGLLAEPQIAMFCGRLNMHMNV[in this place about 40 residues]ANQPVTIQNWCKRGRKQCKTHPHFVIPYRCLVGEFVSDALLVPDKCKFLHQERMDVCETHLHWHTVAKETCSEKSTNLHDYGMLLPCGIDKFRGVEFVCCPLAEESDNVDSADAEEDDSDVWWGGADTDYADGSEDKVVEVAEEEEVAEVEEEEADDDEDDEDGDEVEEEAEEPYEEATERTTSIATTTTTTTESVEEVVRVPTTAASTPDAVDKYLETPGDENEHAHFQKAKERLEAKHRERMSQVMREWEEAERQAKNLPKADKKAVIQHFQEKVESLEQEAANERQQLVETHMARVEAMLNDRRRLALENYITALQAVPPRPRHVFNMLKKYVRAEQKDRQHTLKHFEHVRMVDPKKAAQIRSQVMTHLRVIYERMNQSLSLLYNVPAVAEEIQDEVDELLQKEQNYSDDVLANMISEPRISYGNDALMPSLTETKTTVELLPVNGEFSLDDLQPWHSFGADSVPANTENEVEPVDARPAADRGLTTRPGSGLTNIKTEEISEVKM[in this place about 100 residues]
notes: amyloid precursor protein, human, isoform APP695, full-length; The host is told in the SPR methods only; the tags are named in the glycerol gradient and the MBP blot; also called rhAPP; rhAPP695
B1 was tested. Which “fold decrease of koff with 0152 against without 0152” value did it give?
Its value is 10 fold.

And the “fold increase of kon with 0152 against without 0152” value?
Its value is 3.5 fold.

And the “fold reduction of KD with 0152 against without 0152” value?
The value was 36 fold.
